Experimental data from PubChem BioAssay AID1768 (National Center for Advancing Translational Sciences (NCATS), 2009).
Screen size: about 270,000 compounds; about 620 (0.23%) were called active. This list was built around the results that the source calls inconclusive (neither active nor inactive); the mix of calls is not that of the screen. The call rests on the fitted dose curve; in most records, active means well fitted inhibition curve with a large enough effect in the polarisation, with a control signal flat (not every such curve was filed as active); inconclusive means small, poorly fitted or top-dose-only effect, or effect the other way, or a change in a side signal; inactive means no such curve, though single readings can be large or run the other way; the % refers to the polarisation. Potencies of inconclusive entries are doubtful fits and often do not repeat. “Side channel” marks fits to a control or component signal instead of the main read-out.
Potency means the concentration at half of the fitted maximal effect; tags describe the fitted curve by direction and shape or compound fluorescence and quenching.
Wherever FP activity change, negative = inhibition is given: % of control where 0% means no effect.

The compounds below were run against Menin (Homo sapiens) (UniProt O00255) (assay: qHTS Assay for Inhibitors Targeting the Menin-MLL Interaction in MLL Related Leukemias: Competition With Texas Red Labeled MLL-derived Mutant Peptide). Settings: fluorescence polarization; FP activity change, negative = inhibition: at 61.6 µM (top of the series).
Sequence of UniProt O00255 (O00255 whole entry, looked up): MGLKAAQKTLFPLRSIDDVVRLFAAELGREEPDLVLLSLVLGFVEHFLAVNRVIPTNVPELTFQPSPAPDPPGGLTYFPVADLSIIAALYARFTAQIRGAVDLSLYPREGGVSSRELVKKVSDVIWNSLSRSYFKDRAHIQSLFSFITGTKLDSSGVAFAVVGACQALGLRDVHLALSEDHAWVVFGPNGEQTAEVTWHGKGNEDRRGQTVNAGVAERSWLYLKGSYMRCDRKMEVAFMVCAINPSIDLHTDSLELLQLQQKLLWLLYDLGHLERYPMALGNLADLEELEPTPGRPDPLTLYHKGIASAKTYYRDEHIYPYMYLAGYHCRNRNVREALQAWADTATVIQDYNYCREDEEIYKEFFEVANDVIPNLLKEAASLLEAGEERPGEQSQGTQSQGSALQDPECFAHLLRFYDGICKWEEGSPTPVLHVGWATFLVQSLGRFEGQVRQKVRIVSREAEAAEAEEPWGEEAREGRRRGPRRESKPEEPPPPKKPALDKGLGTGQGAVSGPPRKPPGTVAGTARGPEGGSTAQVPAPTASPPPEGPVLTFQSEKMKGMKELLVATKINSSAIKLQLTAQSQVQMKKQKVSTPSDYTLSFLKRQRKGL
With `O=C(Nc1nc(-c2ccccc2)c(C(=O)c2ccccc2)s1)c1ccc(S(=O)(=O)N2CCCCC2)cc1` the Potency was inconclusive: 12.6 µM [inhibitor, partial curve].
With `Cc1ccc(CC(=O)Nc2ccc(F)c([N+](=O)[O-])c2)cc1C` the Potency was inconclusive: 14.1 µM [quencher, side channel, partial curve].
`O=[N+]([O-])c1ccc(NC(=S)NCc2ccc(F)cc2)cc1` was tested, and the Potency was inconclusive: 12.6 µM [quencher, side channel, partial curve].
With `CCCS(=O)(=O)c1nc(S(=O)(=O)c2ccc(Cl)cc2)c(N2CCC(O)CC2)s1` the Potency was inconclusive: 25.1 µM [quencher, side channel, single point].
`CCN(CC)C(=O)c1[nH]cnc1C(=O)N[C@@H](CC(C)C)C(=O)OCc1ccccc1` was tested, and the Potency was inconclusive: 12.6 µM [fluorescent, side channel, partial curve].
For `NS(=O)(=O)c1ccc(CCNCc2ccccc2OCc2ccc(F)cc2)cc1`, the Potency was inconclusive: 17.8 µM [inhibitor, partial curve].
In the case of `CN=C1S/C(=C\c2ccc(O)c(Br)c2)C(=O)N1C`, the Potency is reported as inconclusive: 25.1 µM [quencher, side channel, partial curve].
`CCOc1ccc(NC(=O)CC2C(=O)N(c3ccc(OC)cc3)C(=O)N2CCc2cccs2)cc1` (stereo not drawn) was tested, and the Potency was inconclusive: 14.1 µM [quencher, side channel, partial curve].
`O=C(NC(NNc1ccc([N+](=O)[O-])cc1)(C(F)(F)F)C(F)(F)F)c1ccc(Cl)cc1` was tested, and the Potency was inconclusive: 22.4 µM [quencher, side channel, single point].
For `Cc1ccc(N2CCN(/N=C/c3c(C)nn(-c4ccccc4)c3Cl)CC2)cc1`, the “FP activity change, negative = inhibition” value was inactive: 0.351%.
In the case of `CCC(=O)NC(C)C(c1cccs1)N1CCN(c2ccccc2)CC1` (stereo not drawn), the Potency is reported as inconclusive: 4.47 µM [inhibitor, single point].
In the case of `COc1ccc(C)cc1NC(=O)C1CCN(S(=O)(=O)c2cccc3nonc23)CC1`, the Potency is reported as inconclusive: 39.8 µM [inhibitor, single point].
For `Cc1ccc(Nc2nc(-c3ccc(S(=O)(=O)N4CCCC4)cc3)cs2)cc1C`, the Potency was inconclusive: 8.91 µM [quencher, side channel, partial curve].
For `CSc1cccc(NC(=O)/C=C/c2ccco2)c1`, the Potency was inconclusive: 25.1 µM [quencher, side channel, partial curve].
`CC(=O)N1CCc2cc(S(=O)(=O)NC(CC(C)C)C(=O)N3CCc4ccccc4C3)ccc21` (stereo not drawn) was tested, and the Potency was inconclusive: 39.8 µM [fluorescent, side channel, single point].
In the case of `CCC(C(=O)NC(C)c1ccccc1)C(=O)NC(C)c1ccccc1` (stereo not drawn), the Potency is reported as inconclusive: 31.6 µM [inhibitor, single point].
With `O=C(CCCN1C(=O)/C(=C/c2cccs2)SC1=S)Nc1ccc(C(=O)O)cc1` the Potency was inconclusive: 17.8 µM [quencher, side channel, partial curve].
`COCCNc1nc(SCC(=O)N2CCN(c3ccccc3OC)CC2)nc2ccccc12` was tested, and the “FP activity change, negative = inhibition” value was inactive: -18.6%.
In the case of `COc1cc(/C=C2\SC(=O)N(CCN)C2=O)ccc1OS(=O)(=O)c1cc(C)ccc1C`, the Potency is reported as inconclusive: 15.8 µM [fluorescent, side channel, partial curve].
In the case of `O=C(N/N=C/c1coc2ccccc2c1=O)c1cc(Br)ccc1O`, the Potency is reported as inconclusive: 22.4 µM [quencher, side channel, partial curve].
`O=c1[nH]c(SCc2cccc(Cl)c2)nc2c1CCCC2` was tested, and the Potency was inconclusive: 15.8 µM [inhibitor, partial curve].
For `COc1cc(/C=N/NC(=O)c2cc(C3CC3)[nH]n2)cc(OC)c1OC`, the Potency was inconclusive: 28.2 µM [inhibitor, partial curve].
With `C=CCc1ccc(OCC(O)CN2CCN(c3ccccc3OC)CC2)c(OC)c1` (stereo not drawn) the Potency was inconclusive: 17.8 µM [fluorescent, side channel, partial curve].
With `Cc1ccccc1C(C(=O)NCc1ccco1)N(CC1CCCO1)C(=O)Cn1nnc2ccccc21` (stereo not drawn) the “FP activity change, negative = inhibition” value was inactive: -15.7%.
With `CS(=O)(=O)Nc1cccc(C2=NN(S(=O)(=O)c3ccccc3)C(c3cccs3)C2)c1` (stereo not drawn) the Potency was inconclusive: 39.8 µM [inhibitor, single point].
In the case of `FC(F)(F)c1cccc(Cc2noc(CN3CCCC(CN4CCCC4)C3)n2)c1` (stereo not drawn), the Potency is reported as inconclusive: 2.24 µM [fluorescent, side channel, full curve].
For `Cc1cccc(C(=O)Nc2nnc(S(=O)(=O)N3CCCCCC3)s2)c1`, the Potency was inconclusive: 7.94 µM [quencher, side channel, partial curve].
`COc1ccc(Nc2nc(N3CCN(S(=O)(=O)N(C)C)CC3)nc3ccccc23)cc1` was tested, and the Potency was inconclusive: 31.6 µM [quencher, side channel, single point].
For `Cc1ccc(NC(=O)CCN2CCCCC2)cc1`, the Potency was inconclusive: 3.16 µM [inhibitor, partial curve].
In the case of `S=C(Nc1ccccc1)c1ccccn1`, the “FP activity change, negative = inhibition” value is reported as inactive: -0.771%.
With `OC[C@@H]1[C@@H](c2ccccc2)C(c2cccc(Cl)c2)=NN1c1ccccc1` the Potency was inconclusive: 12.6 µM [quencher, side channel, partial curve].
With `Cc1ccccc1-c1nn(-c2ccc(F)cc2F)cc1CNCCN(C)C` the Potency was inconclusive: 28.2 µM [fluorescent, side channel, partial curve].
With `COc1cccc(CC(NC(C)=O)C(=O)NC2CCN(c3nc(C)cc(C)c3C#N)CC2)c1OC` (stereo not drawn) the “FP activity change, negative = inhibition” value was inactive: -25.8%.
With `COC(=O)c1ccc(C2/C(=C(/O)c3ccc(OC)cc3)C(=O)C(=O)N2Cc2ccco2)cc1` (stereo not drawn) the Potency was inconclusive: 31.6 µM [quencher, side channel, single point].
With `O=C(Cc1cccs1)N1CCN(C(=O)C2CCCO2)CC1` (stereo not drawn) the Potency was inconclusive: 8.91 µM [inhibitor, single point].
For `Cn1c(COc2nnc(-c3ccc(Cl)cc3)c3ccccc23)nc2ccccc21`, the Potency was inconclusive: 0.316 µM [inhibitor, full curve, poor fit].
With `CC1=C(Nc2ccc(C(=O)O)cc2)C(=O)c2ccccc2C1=O` the Potency was inconclusive: 20 µM [quencher, side channel, single point].
`O=C(N/N=C/c1c(O)ccc2ccccc12)c1cccc(C(F)(F)F)c1` was tested, and the Potency was inconclusive: 28.2 µM [quencher, side channel, partial curve].
`CC1=C(C)CC(c2ccccc2)C(C(=O)c2ccccc2O)C1` (stereo not drawn) was tested, and the FP activity change, negative = inhibition was inactive: 9.23% [at 11.7 µM].
With `CCCCC1OC23CCCCC2C(C#N)(C(=N)O3)C1(C#N)C#N` (stereo not drawn) the “FP activity change, negative = inhibition” value was inactive: -14.2%.
In the case of `Cc1ncsc1CCSc1n[nH]c(=O)n1-c1ccccc1`, the Potency is reported as inconclusive: 31.6 µM [inhibitor, single point].
In the case of `COc1cccc(C(=O)NCC(C)(C)SCc2ccc(F)cc2)c1`, the Potency is reported as inconclusive: 3.98 µM [inhibitor, partial curve].
In the case of `Cc1cc(=O)oc2cc(NC(=O)CCCC(=O)O)ccc12`, the Potency is reported as inconclusive: 4.47 µM [inhibitor, partial curve].
For `O=C(Cc1ccc(Cl)cc1)Nc1ccc(S(=O)(=O)Nc2cnc3ccccc3n2)cc1`, the Potency was inconclusive: 28.2 µM [quencher, side channel, partial curve].
For `CCOC(=O)N1CCC(NC(=O)CCC(=O)N2CCOc3ccc(Cl)cc32)CC1`, the Potency was inconclusive: 28.2 µM [fluorescent, side channel, single point].
In the case of `COc1ccc(CN(C(=O)c2ccc(-c3ccccc3)[nH]2)C(C(=O)NCC2CCCO2)c2ccc(C)o2)cc1` (stereo not drawn), the Potency is reported as inconclusive: 1.58 µM [inhibitor, partial curve, poor fit].
`Cc1cccc(Nc2nc(-c3ccccc3)cs2)n1` was tested, and the Potency was inconclusive: 31.6 µM [quencher, side channel, single point].
For `COCCNC(=S)N1CCN(c2nc(-c3cccc(OC)c3)cs2)CC1`, the Potency was inconclusive: 12.6 µM [quencher, side channel, partial curve].
For `CCOCCn1c(CN2CCN(C(c3ccccc3)c3ccccc3)CC2)nc2c1c(=O)n(C)c(=O)n2C`, the Potency was inconclusive: 7.08 µM [fluorescent, side channel, full curve, poor fit].
With `CNC(=S)Nc1ccc(-c2nc3ccc(C)cc3s2)cc1` the Potency was inconclusive: 17.8 µM [quencher, side channel, partial curve].
`C/C(=N\Nc1nc(-c2ccccc2)cs1)c1cccs1` was tested, and the Potency was inconclusive: 11.2 µM [quencher, side channel, partial curve].
For `C[N+]1(CC(=O)OC2CCCCCCCCCCC2)CCCC1`, the “FP activity change, negative = inhibition” value was inactive: -9.33%.
For `O=C(COC(=O)/C=C/c1cccc(F)c1)Nc1ccccc1`, the Potency was inconclusive: 39.8 µM [inhibitor, single point].
`O=C(c1ccccc1Nc1ccc(SC(F)F)cc1)N1CCCCC1` was tested, and the Potency was inconclusive: 5.62 µM [inhibitor, full curve, poor fit].
`COc1ccc(CCNC(=O)C2CC(=O)N(c3ccc(Br)cc3)C2)cc1OC` (stereo not drawn) was tested, and the “FP activity change, negative = inhibition” value was inactive: -11.8%.
In the case of `COc1cc(OC)cc(C(=O)NC2CCN(CC(=O)Nc3cccc4ccccc34)CC2)c1`, the Potency is reported as inconclusive: 25.1 µM [inhibitor, partial curve, poor fit].
`O=C(/C=C/c1ccccc1)OCCN1C(=O)c2ccccc2C1=O` was tested, and the Potency was inconclusive: 2.82 µM [inhibitor, full curve, poor fit].
For `COc1ccc(Cc2nnc(CCc3ccccc3)s2)cc1`, the Potency was inconclusive: 39.8 µM [inhibitor, single point].
